Assay results taken from PubChem BioAssay AID1030 (National Center for Advancing Translational Sciences (NCATS), 2008).
About 16,000 (7.3%) of roughly 220,000 compounds were called active. The inconclusive results got no clear call from the source; some entries with a clear call stand among them for comparison. Calls follow the shape of the dose curve; as a rule, active = well fitted inhibition curve with a large enough effect (not every such curve was filed as active); inconclusive = small, poorly fitted or top-dose-only effect, or another doubt; inactive = no such curve, though single readings can be large or run the other way. Potencies beside an inconclusive call are fits to weak or partial responses and may not hold up.

Target: Aldehyde dehydrogenase 1A1 (Homo sapiens) (UniProt P00352)
UniProt P00352, sequence (P00352 whole entry, looked up): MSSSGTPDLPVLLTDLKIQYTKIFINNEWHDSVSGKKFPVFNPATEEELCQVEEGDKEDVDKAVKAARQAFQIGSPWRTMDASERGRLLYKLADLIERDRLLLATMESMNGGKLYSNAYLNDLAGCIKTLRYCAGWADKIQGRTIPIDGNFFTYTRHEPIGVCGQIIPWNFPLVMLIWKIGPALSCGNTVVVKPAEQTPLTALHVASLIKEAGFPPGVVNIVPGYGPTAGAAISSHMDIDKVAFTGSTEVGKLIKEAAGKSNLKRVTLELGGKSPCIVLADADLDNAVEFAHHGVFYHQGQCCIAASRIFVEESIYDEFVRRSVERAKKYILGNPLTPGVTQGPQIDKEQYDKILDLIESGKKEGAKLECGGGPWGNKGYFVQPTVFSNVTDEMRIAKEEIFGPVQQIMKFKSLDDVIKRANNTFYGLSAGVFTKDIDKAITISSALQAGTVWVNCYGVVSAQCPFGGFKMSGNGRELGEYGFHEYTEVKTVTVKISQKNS
Test: qHTS Assay for Inhibitors of Aldehyde Dehydrogenase 1 (ALDH1A1)
Conditions: Purified ALDH1A1, NADH fluorescence, propionaldehyde substrate; series mostly up to 75.3 µM
Potency is read from the fitted curve at half-maximal effect; tags tell the direction and shape of the fitted curve.

Potency, inconclusive:
COc1ccccc1N1CCN(C(C)C(=O)N2CC(C)OC(C)C2)CC1 (configuration not stated) 17.8 µM [inhibitor, partial curve]
O=[N+]([O-])c1cccc(/C=N\N2CCN(Cc3ccccc3Cl)CC2)c1 35.5 µM [inhibitor, single point]
Cc1ccc(-c2nc(C#N)c(NCc3cccc4c3OCO4)o2)cc1 35.5 µM [inhibitor, single point]
C=CCNC(=O)c1ccccc1NC(=O)c1cccc2ccccc12 39.8 µM [inhibitor, single point]
CC1Cc2cccc3c(O)c(C(=O)c4nn[nH]n4)c(=O)n1c23 (configuration not stated) 44.7 µM [inhibitor, single point]
Cc1onc(-c2ccccc2)c1C(=O)Nc1ccccc1N1CCOCC1 12.6 µM [inhibitor, partial curve]
COc1ccc(-c2cc(CNC(=O)CN3CCN(C)CC3)on2)cc1 44.7 µM [inhibitor, single point]
CCN(CC)c1ccc(/C=N/N2CCN(Cc3ccccc3)CC2)c(O)c1 20 µM [inhibitor, partial curve]
O=C(NCc1ccc(F)cc1)C1CCCN(S(=O)(=O)c2cccnc2)C1 (configuration not stated) 39.8 µM [inhibitor, single point]
Cc1ccc(/C=C(\C#N)C(=O)NCCN2CCOCC2)cc1 39.8 µM [inhibitor, single point]
CC(C)=NN1C(c2nonc2N)=NOC1(C)C 39.8 µM [inhibitor, single point]
Cc1cccn2c(=O)c3cc(C(N)=S)c(=N)n(CCCN4CCOCC4)c3nc12 28.2 µM [inhibitor, partial curve]
COCCn1c(N)c(S(=O)(=O)c2cccs2)c2nc3ccccc3nc21 28.2 µM [inhibitor, partial curve]
S=C(NCCc1ccccc1)Nc1ccccc1N1CCOCC1 3.55 µM [inhibitor, single point]
Nc1nc(SCc2ccc(Cl)cc2)[nH]c(=O)c1-c1ccccc1 28.2 µM [inhibitor, single point]
O=c1[nH]cnc2nc(-c3ccccc3)c(-c3ccccc3)nc12 35.5 µM [inhibitor, partial curve]
CCN(Cc1ccncc1)Cc1cn(C)nc1-c1ccc(Oc2ccccc2)cc1 25.1 µM [inhibitor, single point]
CC(OC(=O)C1CCN(S(=O)(=O)c2ccccc2)CC1)C(=O)Nc1ncc(Cl)cc1Cl (configuration not stated) 22.4 µM [inhibitor, single point]
Cc1ccccc1C(=O)Nc1sc(C)c(C)c1C(=O)c1ccccc1 35.5 µM [inhibitor, single point]
O=C1CC(c2ccccc2Cl)C2=C(COC2=O)N1 (configuration not stated) 20 µM [inhibitor, partial curve]
COc1ccccc1CNCC(=O)NCc1ccc(C)cc1 28.2 µM [inhibitor, single point]
Cc1ccc2sc(-c3ccc(NC(=O)/C=C\C(=O)O)cc3)nc2c1 14.1 µM [inhibitor, partial curve]
COc1cc2c(cc1OC)C(CSc1ccccc1C(=O)O)=NC(C)(C)C2 28.2 µM [inhibitor, partial curve]
C(=C\c1ccccc1)/CSc1nnc(-c2cccnc2)o1 15.8 µM [inhibitor, partial curve]
NS(=O)(=O)c1ccc(N2CCCCCC2)c([N+](=O)[O-])c1 35.5 µM [inhibitor, single point]
COc1cccc(-c2csc(N3CCN(C(=S)Nc4cccc(Cl)c4)CC3)n2)c1 39.8 µM [inhibitor, single point]
COc1cc2cc(CN(C(=O)NC3CCCCC3)C3CCCC3)c(=O)[nH]c2cc1OC 28.2 µM [inhibitor, single point]

Potency, inactive:
COc1ccc(CCNC(=S)Nc2ccccc2C)cc1
CCc1ccccc1NC(=S)NNC(=O)c1ccccc1Cl
CN(C)c1cccc(C(=O)Nc2cc(C(F)(F)F)ccc2-n2cnc3ccccc32)c1
CCOC(=O)c1sc2ncn(C(C)C(=O)OCC)c(=O)c2c1C (configuration not stated)
O=C(/C=C/c1cccs1)NCc1ccccc1
Cc1ccc(Nc2nc(N)nc(CSC(=S)N3CCN(c4ccccc4)CC3)n2)cc1
COC(=O)C1=C(C)N=C2SCCC(=O)N2C1c1ccc(OC(=O)c2ccco2)cc1 (configuration not stated)
CC(C)NCC1CCc2cc(CO)c([N+](=O)[O-])cc2N1 (configuration not stated)
O=C(Nc1cccc(Cl)c1)Nc1cc(S(=O)(=O)N2CCCCC2)ccc1Cl
COc1ccc(C2C(C(=O)Nc3ccccn3)=C(C)Nc3ncnn32)c(OC)c1 (configuration not stated)
Cc1cc(N2CCOCC2)nc(SCC(=O)c2ccc(Cl)cc2)n1
O=C1CC(C(F)(F)C(F)(F)C(F)(F)C(F)F)=Nc2ccccc2N1

Potency, active:
C#CCOCCOCCOCCNc1nc(N2CCN(C(=O)[C@H](CCCCN)n3cc(C(N)[C@H](C)CC)nn3)CC2)nc(N2CCN(C(=O)[C@H](CCC(=O)O)n3cc(C(N)[C@H](C)CC)nn3)CC2)n1 (some centres not stated) 22.4 µM
O=S(=O)(c1ccc(Cl)cc1)N1c2ccccc2Oc2nc3ccccc3nc21 25.1 µM
C=CC(=O)CC 2 µM
O=C(/C=C/c1ccc([N+](=O)[O-])cc1)Nc1cccnc1 8.91 µM
CC(=O)Nc1ccc(C(=O)OCC(=O)Nc2ccc(N3CCOCC3)cc2)cc1 17.8 µM
CCOC(=O)CSc1nc2c(sc3ccccc32)c(=O)n1CCCN1CCOCC1 14.1 µM
COc1cccc(C2SCC(=O)N2c2ccc(C)cc2)c1OC (configuration not stated) 14.1 µM
O=C(CNC(=S)N(Cc1ccccc1)Cc1cccnc1)NC1CCCCC1 12.6 µM
